Results: the supplement of paper PMC4967469
By IC50 is meant the dose at which the fit gives 50% viability; a fit beyond the top or the lowest dose is shown as a bound at that dose. AUC sums up the same curve from the lowest dose to the 256-fold higher top dose; values near 1 show little effect. The top dose, if marked as inferred, is not printed in the source and was worked back from the curve model.

Key:
Assay in all cases: Viability of human cancer cell lines after 72 h of drug (GDSC screen)
CAY10603 = compound: CC(C)(C)OC(=O)Nc1ccc(-c2cc(C(=O)NCCCCCCC(=O)NO)no2)cc1 [CAY10603]; details: top dose 20 µM; top dose inferred
Experimental: (§1)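 Human cancer cell lines in 384-well plates, medium with 10% serum, drug for 72 h over a 256-fold dose range (nine 2-fold or five 4-fold steps up to the top dose). Adherent lines were fixed and stained with the nucleic acid dye Syto60, suspension lines read with resazurin; signal relative to control wells, capped at 0 and 100%. One two-parameter sigmoid per drug and line, fitted in a mixed model over all curves with the slope shared within a line.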

XMD8-92 = compound: CCOc1cc(N2CCC(O)CC2)ccc1Nc1ncc2c(n1)N(C)c1ccccc1C(=O)N2C [XMD8-92]; details: top dose 10 µM; top dose inferred
Experimental: as §1

CH5424802 = compound: CCc1cc2c(cc1N1CCC(N3CCOCC3)CC1)C(C)(C)c1[nH]c3cc(C#N)ccc3c1C2=O [CH5424802]; details: top dose 5.12 µM; top dose inferred
Experimental: as §1

ACHP (KIN001-260) = compound: N#Cc1c(C2CCNCC2)cc(-c2c(O)cccc2OCC2CC2)nc1N [ACHP (KIN001-260)]; details: top dose 20 µM; top dose inferred
Experimental: as §1

Cell Line | AUC (CAY10603) | IC50 (CAY10603) | AUC (XMD8-92) | IC50 (XMD8-92) | AUC (CH5424802) | IC50 (CH5424802) | AUC (ACHP (KIN001-260)) | IC50 (ACHP (KIN001-260))
CHSA0108 (chondrosarcoma, adherent) | 0.444 | 0.855 µM | 0.879 | > 10 µM | 0.976 | > 5.12 µM | 0.885 | > 20 µM
CHSA8926 (chondrosarcoma, adherent) | 0.856 | > 20 µM | 0.942 | > 10 µM | 0.978 | > 5.12 µM | 0.974 | > 20 µM
CL-11 (large intestine, adherent) | 0.873 | > 20 µM | 0.881 | > 10 µM | 0.987 | > 5.12 µM | 0.987 | > 20 µM
COLO-668 (small cell lung carcinoma, adherent) | 0.529 | 1.5 µM | 0.98 | > 10 µM | 0.976 | > 5.12 µM | 0.982 | > 20 µM
COLO-684 (endometrium, suspension) | 0.489 | 1.16 µM | 0.947 | > 10 µM | 0.972 | > 5.12 µM | 0.949 | > 20 µM
COLO-783 (melanoma, adherent) | 0.857 | 15.3 µM | 0.989 | > 10 µM | 0.986 | > 5.12 µM | 0.99 | > 20 µM
COLO-800 (melanoma, adherent) | 0.818 | 10.9 µM | 0.866 | 8.49 µM | 0.984 | > 5.12 µM | 0.977 | > 20 µM
COR-L23 (large cell lung carcinoma, adherent) | 0.427 | 0.794 µM | 0.982 | > 10 µM | 0.987 | > 5.12 µM | 0.944 | > 20 µM
COR-L95 (small cell lung carcinoma, adherent) | 0.724 | 6.04 µM | 0.985 | > 10 µM | 0.982 | > 5.12 µM | 0.972 | > 20 µM
CP50-MEL-B (melanoma, adherent) | 0.538 | 1.58 µM | 0.901 | > 10 µM | 0.987 | > 5.12 µM | 0.949 | > 20 µM
CS1 (bone, adherent) | 0.577 | 2.08 µM | 0.946 | > 10 µM | 0.932 | > 5.12 µM | 0.938 | > 20 µM
CW-2 (large intestine, adherent) | 0.652 | 3.41 µM | 0.978 | > 10 µM | 0.987 | > 5.12 µM | 0.977 | > 20 µM
CaR-1 (large intestine, adherent) | 0.655 | 4.21 µM | 0.816 | 9.61 µM | 0.975 | > 5.12 µM | 0.978 | > 20 µM
Calu-3 (lung adenocarcinoma, adherent) | 0.766 | 9.26 µM | 0.879 | > 10 µM | 0.98 | > 5.12 µM | 0.983 | > 20 µM
Capan-2 (pancreas, adherent) | 0.976 | > 20 µM | 0.982 | > 10 µM | 0.981 | > 5.12 µM | 0.985 | > 20 µM
D-247MG (glioma, adherent) | 0.517 | 1.42 µM | 0.919 | > 10 µM | 0.963 | > 5.12 µM | 0.979 | > 20 µM

Cell Line | AUC (CAY10603) | IC50 (CAY10603) | AUC (XMD8-92) | IC50 (XMD8-92) | AUC (CH5424802) | IC50 (CH5424802) | AUC (ACHP (KIN001-260)) | IC50 (ACHP (KIN001-260))
D-263MG (glioma, adherent) | 0.643 | 3.39 µM | 0.845 | 9.65 µM | 0.983 | > 5.12 µM | 0.98 | > 20 µM
D-336MG (glioma, adherent) | 0.567 | 2 µM | 0.935 | > 10 µM | 0.969 | > 5.12 µM | 0.958 | > 20 µM
D-392MG (glioma, adherent) | 0.671 | 4.48 µM | 0.899 | > 10 µM | 0.973 | > 5.12 µM | 0.952 | > 20 µM
D-423MG (glioma, adherent) | 0.488 | 1.15 µM | 0.896 | > 10 µM | 0.974 | > 5.12 µM | 0.893 | > 20 µM
D-542MG (glioma, adherent) | 0.509 | 1.33 µM | 0.919 | > 10 µM | 0.984 | > 5.12 µM | 0.984 | > 20 µM
D-566MG (glioma, adherent) | 0.439 | 0.851 µM | 0.916 | > 10 µM | 0.984 | > 5.12 µM | 0.955 | > 20 µM
DBTRG-05MG (glioma, adherent) | 0.667 | 3.98 µM | 0.914 | > 10 µM | 0.983 | > 5.12 µM | 0.976 | > 20 µM
DG-75 (Burkitt lymphoma, suspension) | 0.579 | 2.06 µM | 0.711 | 2.48 µM | 0.986 | > 5.12 µM | 0.96 | > 20 µM
DMS-53 (small cell lung carcinoma, adherent) | 0.921 | > 20 µM | 0.903 | > 10 µM | 0.988 | > 5.12 µM | 0.988 | > 20 µM
DMS-114 (small cell lung carcinoma, adherent) | 0.775 | 9.16 µM | 0.896 | > 10 µM | 0.981 | > 5.12 µM | 0.972 | > 20 µM
DMS-273 (small cell lung carcinoma, adherent) | 0.371 | 0.538 µM | 0.983 | > 10 µM | 0.978 | > 5.12 µM | 0.848 | 16.2 µM
DND-41 (T-cell leukaemia, suspension) | 0.234 | 0.238 µM | 0.885 | 8.66 µM | 0.985 | > 5.12 µM | 0.755 | 6.07 µM
DOK (head and neck, adherent) | 0.631 | 3.44 µM | 0.843 | > 10 µM | 0.968 | > 5.12 µM | 0.968 | > 20 µM
DOV13 (ovary, adherent) | 0.983 | > 20 µM | 0.866 | > 10 µM | 0.981 | > 5.12 µM | 0.962 | > 20 µM
Daudi (Burkitt lymphoma, suspension) | 0.376 | 0.597 µM | 0.858 | 6.56 µM | 0.986 | > 5.12 µM | 0.958 | > 20 µM
